Our source for the binding signal values is article PMC12136788.

B1: ENSG00000070961:be:win_1151|CDS|ENSG00000070961|bound_else_gene|NA|bound_elsewhere_windowed (ssRNA)
RNA: GGGAGUUCUACAGUCCGACGAUCCAGUUAUCAUUCUAGUAUUAUAUUUUGUCAUUGACACCUUCUGGGUUCAGAAAAGACCAUGGCUUGCUGAGUGCACACCAAUUUAUAUACAAUACUUUGUGAAGUUCUUCAUUAUUGGAGCAACAGAGGAUUGAGCAUCA
B2: chr8:123014585:123014686:-|3pUTR|ENSG00000136986|msi1|FALSE|unique (ssRNA)
RNA: GGGAGUUCUACAGUCCGACGAUCGCAGCUAACAUGGGUUAGGUUUAAACCAUGGGGGAUGCAACCCCUUUGCGUUUCAUAUGUAGGCCUACUGGCUUUGUGUAGCUGGAGUAGUUGGGUUGCUUUGUGUUAGGAGGAUCCAGACAACAGAGGAUUGAGCAUCA
B3: ENSG00000107863:be:win_5201|CDS|ENSG00000107863|bound_else_gene|NA|bound_elsewhere_windowed (ssRNA)
RNA: GGGAGUUCUACAGUCCGACGAUCUUGAUGUUAUGAAAAAAGGAAAGUCAACUGGGAGUUUACUGACACCCACCAGAGGCGAAUCCGAAAAACAGGAACCCACAUGGAAAACGAAAAUAGCAGAUCGGUUAAAACUGAGACCCACAACAGAGGAUUGAGCAUCA
B4: chr15:65058426:65058617:-|CDS|ENSG00000103710|control|control|control (ssRNA)
RNA: GGGAGUUCUACAGUCCGACGAUCCUGAACUGGGCCCAUGCCUUCCUGGUGGUGUACAGCGUCGACAGCCGCCAGAGCUUUGAUAGCAGCAGCAGCUACCUGGAGCUGCUUGCCUUGCACGCGAAGGAGACACAGCGCAGCAUCCAACAGAGGAUUGAGCAUCA
B5: ENSG00000198589:be:win_6301|CDS|ENSG00000198589|bound_else_gene|NA|bound_elsewhere_windowed (ssRNA)
RNA: GGGAGUUCUACAGUCCGACGAUCGAUCCUAACUUCAAAAAAAUCGACCCCAAGAUCUUGGCAUAUACAGAAGGGCUGCAUGGAAAAUGGCUGUUCACAGAGAUACGAUCAAUCUUUUCUCGUCGUUAUCUUUUGCAAAAUACACAACAGAGGAUUGAGCAUCA
B6: chr22:41117408:41117517:+|CDS|ENSG00000100393|unk|FALSE|unique (ssRNA)
RNA: GGGAGUUCUACAGUCCGACGAUCCCAGGUCAAGUCAUGGCCAGCCAGGCCCAACAGAGCAGUCCUGGAUUAGGUUUGAUAAAUAGCAUGGUCAAAAGCCCAAUGACACAGGCAGGCUUGACUUCUCCCAACAUGGGGAUGGGCCAACAGAGGAUUGAGCAUCA
B7: chr11:118657315:118658441:-|three_prime_utr|ENSG00000118094|control|control|control (ssRNA)
RNA: GGGAGUUCUACAGUCCGACGAUCCCUCCCAGCCUGUCCUCAGAGCGAAGUGGAGGGCAGGGUCACGACCUGGAGGUCAUGGGUAGGGGCCUAGCUCCCUCCUGGAACCUUGAAUAGGGUGGAAAUCCUGCUCUGGAGGGAAGACAACAGAGGAUUGAGCAUCA
B8: chr8:97725557:97725573:+|3pUTR|ENSG00000147649|msi1_unk|FALSE|overlapping (ssRNA)
RNA: GGGAGUUCUACAGUCCGACGAUCGUUGACUUUAAAAAUGAAAUCAUUCACAAACUUUUGGUAUAUGAUGGAGAAUGAAAAACUAGAGUCAGACAGCUUUAAUUGACAUUGUCAACACCUCCAGUUAUCAGGAAUACAUUUUUUCAACAGAGGAUUGAGCAUCA
B9: chr15:43456694:43456846:-|CDS|ENSG00000067369|unk|total|mutant (ssRNA)
RNA: GGGAGUUCUACAGUCCGACGAUCAGACACCAGGGAUGACAUCCGUAUUUCCGCCACUGGUUGCAAGGGCAGAGAAGAAACGGCCGCAGAAGAUGUUUGUAUUGAUCUCACUUGUGAUUCGGGGAGUCAGGCAGUUCCGUCACCCAACAGAGGAUUGAGCAUCA
B10: ENSG00000070961:be:win_4401|3pUTR|ENSG00000070961|bound_else_gene|NA|bound_elsewhere_windowed (ssRNA)
RNA: GGGAGUUCUACAGUCCGACGAUCGUUAUGACAUCUGUCCUAAUUAGUUUCUUAAAUACAUUUACUACUUAAUGGUUUUGAAGCAACUGUUUAAUUUUUAAAAUUUUUGAAAACUUGCUAAUAACCUUUUGUUCAGAAUUUAGUCAACAGAGGAUUGAGCAUCA
B11: chr1:45741042:45741143:-|CDS|ENSG00000197429|msi1|total|mutant (ssRNA)
RNA: GGGAGUUCUACAGUCCGACGAUCUGCCAUGAUCUCUUGGAAUUCUCAGAAAACUACAUUCAUGUCCAUUUCUUGGAGGUUCACCGUGGAGAAGAGUUCCUGGCACUUACGAAAGAUCAGCUGAUCAAAAUUUUGCGAAGUGAACAACAGAGGAUUGAGCAUCA
B12: chr7:137227872:137228000:-|3pUTR|ENSG00000105894|msi1_unk|FALSE|overlapping (ssRNA)
RNA: GGGAGUUCUACAGUCCGACGAUCGGAACAUAAAAAGGACAUCAGCAAACAGGAUCAGUUAACUAUUGCAUUUAUAUGUACCGUAGGCUUUGUAUUCAAAAAUUAUCUAUAGCUAAGUACACAAUAAGCAAAAACAAAAAGAAACAACAGAGGAUUGAGCAUCA
B13: ENSG00000106080:stop:overlap|stop_codon|ENSG00000106080|stop_codon|NA|stop_codon (ssRNA)
RNA: GGGAGUUCUACAGUCCGACGAUCAUGAAGACAAAGAUGGGUUUAUAUCUGCCAGAGAAUUUACAUAUAAACACGAUGAGUUAUAGAGAUACAUCUACCCUUUUAAUAUAGCACUCAUCUUUCAAGAGAGGGCAGUCAUCUUUACAACAGAGGAUUGAGCAUCA
B14: chr20:3868059:3868160:+|3pUTR|ENSG00000088888|unk|total|mutant (ssRNA)
RNA: GGGAGUUCUACAGUCCGACGAUCUCAGCCUCCAGGGAUCUACACCCUGCCUUGGCUGCUACAGCUUUUUCACUCCACUGCCCCCGGGGAGUUCAGCAACCUAAUGAUCUCUAUCUCUGAACAUCUCUUCAUCCCAUGCUCCAACAACAGAGGAUUGAGCAUCA
B15: chr9:37862824:37862925:+|3pUTR|ENSG00000122741|unk|total|mutant (ssRNA)
RNA: GGGAGUUCUACAGUCCGACGAUCUAUGCACCCGCCUUGCCCUCUCCGGUUGCAUUCUCUUCCGGCCACUGGUUCUCAAACAUCCGGGUGCACUGUAACCAUUACAGAGCUUGUGAAAAGUGCAGAAACCUGAGCCUCACCUUACAACAGAGGAUUGAGCAUCA
B16: chr22:21921976:21922077:-|3pUTR|ENSG00000100034|msi1|FALSE|unique (ssRNA)
RNA: GGGAGUUCUACAGUCCGACGAUCGACUGCAGUGGGCUCGGAUAGGCCCAUUGAGGUUUUUAGAAAAGCAGGAUUUGUUUUGUUAGGGAGGCAUGAUUUUGGUGAGAUCUUUCUGGAAGAGUUUUCCGCCUCUUUGUGAUGCUGCAACAGAGGAUUGAGCAUCA
B17: ENSG00000138759:stop:overlap|stop_codon|ENSG00000138759|stop_codon|NA|stop_codon (ssRNA)
RNA: GGGAGUUCUACAGUCCGACGAUCAAGUUGGAAAGGUUGAGCCCUUGACCACAAUAUUUCACACCAUUAGAGAGCUUUCUUUAUAGGGACUCAAAAGCAAAGAAGAUUGGAUUUGACCUUCAAAAUUGAAGGUCGUUCUUAAAACAACAGAGGAUUGAGCAUCA
B18: chr15:75505753:75505856:-|CDS|ENSG00000169410|unk|FALSE|unique (ssRNA)
RNA: GGGAGUUCUACAGUCCGACGAUCGGUGAACGGCCACCCAGAUCCCUUCGAUGAGAUCAUCCUGUUCUCCCUCCCUCCUGCCUUAGACUGGGACUCAGUACAUGUUCCAGGUCCCCAUGCUAUGACCAUCCAAGAGUUGGUGGACAACAGAGGAUUGAGCAUCA
B19: chr3:73066602:73066703:+|3pUTR|ENSG00000163605|unk|total|mutant (ssRNA)
RNA: GGGAGUUCUACAGUCCGACGAUCACUAUUUUGCCGAAUGAAUGUUUAUGAAGCUGAUAUGAGACCAUCUCAGAAGAACCAAGCCGGUUCCUUGACCUUUUGCUUGCUUUUCUGAACAUUGUGAAUAUUACACAUGUCUUUCUACAACAGAGGAUUGAGCAUCA
B20: chr10:103289619:103289731:+|3pUTR|ENSG00000148798|unk|total|mutant (ssRNA)
RNA: GGGAGUUCUACAGUCCGACGAUCAUGAGUGGAAAAAGCCAAGGUGUCAUUUAUGUGUCAGUUCAUUUGUGGUGAUACCGAAUCCGCUUUUUCAUCCCCUUACCCUCCGAAUCCACGUAUUCCCCUUCCCACCCGCCCCGGUCACAACAGAGGAUUGAGCAUCA
B21: ENSG00000106305:stop:overlap|stop_codon|ENSG00000106305|stop_codon|NA|stop_codon (ssRNA)
RNA: GGGAGUUCUACAGUCCGACGAUCACGUGCACGGCAGGAGCUACGGCCCAGCGCCGGGCGCUGGCCACGUGCAGCCUCUCCAGUAGCUGGGAUUACAGGUGCCCCCCACCAAGCCCAGCUAAUUUUUGUGUUUCAGUAGAAAUGCAACAGAGGAUUGAGCAUCA
B22: chr8:144876950:144881514:-|three_prime_utr|ENSG00000196150|control|control|control (ssRNA)
RNA: GGGAGUUCUACAGUCCGACGAUCGAAACUGCAUGUGGAACCACAAGCAGCCUUCAGCCCAAGAGAAGUCUCUGUUAACUCUAUAGGAAGCUUUUCUUUGGCGAUUCAGUGUCACAAAAUAACUCCAGAAAGAAGCACUUAGCGCAACAGAGGAUUGAGCAUCA

The list shows a part of the results.

The target of this experiment is MSI1 full-length (mouse, UniProt Q61474 1-362). The experiment is described as follows: nsRBNS (natural sequence RNA bind-n-seq); RBNS binding buffer (assumed for nsRBNS): 25 mM Tris pH 7.5, 150 mM KCl, 3 mM MgCl2, 0.01% Triton X-100, 500 ug/ml BSA, 20 U/ml SUPERase-In, 4 C; UNK is unkempt and MSI1 is Musashi-1; names of the RNAs are library labels; protein concentration not given here; high values mean tight binding.
UniProt Q61474, sequence (Q61474 whole entry): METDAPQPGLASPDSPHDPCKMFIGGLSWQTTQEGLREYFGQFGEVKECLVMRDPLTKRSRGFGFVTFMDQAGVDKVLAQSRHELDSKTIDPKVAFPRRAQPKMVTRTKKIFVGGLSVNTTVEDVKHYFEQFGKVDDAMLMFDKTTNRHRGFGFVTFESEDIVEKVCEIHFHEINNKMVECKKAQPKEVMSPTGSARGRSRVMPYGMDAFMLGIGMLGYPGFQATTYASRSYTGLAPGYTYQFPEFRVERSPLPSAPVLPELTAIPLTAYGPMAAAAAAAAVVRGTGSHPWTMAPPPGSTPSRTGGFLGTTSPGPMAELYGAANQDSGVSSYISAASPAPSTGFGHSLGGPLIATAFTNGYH
B1 displayed a binding signal of 8.08 enrichment R.

For the molecule B2, the binding signal turned out to be 0.688 enrichment R. In the case of B3 it was 0.386 enrichment R; in that of B4, 0.377 enrichment R. With B5, the binding signal worked out at 0.245 enrichment R.

The molecule B6 registered a binding signal of 1.17 enrichment R. As for B7, the binding signal was 0.327 enrichment R. B8 yielded a binding signal of 0.544 enrichment R. Regarding B9, the binding signal was found to be 0.515 enrichment R. With B10, the binding signal turned out to be 3.8 enrichment R. B11 gave a binding signal of 0.181 enrichment R. Molecule B12 returned a binding signal of 2.29 enrichment R.

For the molecule B13, the binding signal came to 1.32 enrichment R.

For B14, the binding signal came to 0.647 enrichment R. For B15, the binding signal was found to be 0.381 enrichment R. B16 gave a binding signal of 0.64 enrichment R.

In turn, B17 registered a binding signal of 0.245 enrichment R. In turn, B18 showed a binding signal of 0.726 enrichment R. For B19, the binding signal is 0.221 enrichment R. B20 showed a binding signal of 0.524 enrichment R.

B21: the binding signal came out at 0.334 enrichment R. Consider B22, for which the binding signal amounted to 0.539 enrichment R.
